Experimental data: PubChem BioAssay AID463173 (ICCB-Longwood Screening Facility, Harvard Medical School, 2010)
In all, about 52,000 compounds went through this assay and about 4,300 (8.3%) were called active. Cut-off read from the data, not from the text of the source: active = survival mostly below about 52% (no sharp cut-off); inactive = mostly above about 56%. This is one part of the list.

Each molecule was assayed on DeltatarO mutant (assay: S. aureus survival, RN4220 and DeltatarO strains – OD600, teichoic acid synthesis inhibitors, primary screen (AID 463173)). Conditions: S. aureus RN4220 wild type/DeltatarO growth, OD600, 18 h, stronger effect = lower value, screened at 18.75 µg/mL (by protocol).
With `CCc1ccc(-n2c(N3CCN(c4cccc(Cl)c4)CC3)nc3ccccc3c2=O)cc1` the survival was inactive: 67%.
In the case of `Cc1ccc(-n2c(SCC(=O)NCc3ccccc3)nc3n[nH]c(C)c3c2=N)cc1Cl`, the survival is reported as active: -5%.
`O=C(NCC(c1cccs1)S(=O)(=O)c1cccs1)c1ccc(Cl)cc1` (stereo unspecified) was tested, and the survival was inactive: 75%.
In the case of `Fc1cc(F)c2ncc3c(-c4ccccc4)nn(-c4cccc(Cl)c4)c3c2c1`, the survival is reported as inactive: 123%.
`CC(C)OCCCNC(=O)C(=O)Nc1ccc2nc3n(c(=O)c2c1)CCCCC3` was tested, and the survival was inactive: 103%.
In the case of `Cc1ccc(Sc2ccc(N3CCC(C(=O)Nc4ccc(C)c(F)c4)CC3)nn2)cc1`, the survival is reported as inactive: 71%.
In the case of `Cc1cccc(Cn2c(=O)n(Cc3ccccc3)c(=O)c3oc4ccccc4c32)c1`, the survival is reported as inactive: 86%.
In the case of `Cc1ccccc1NC(=O)C1CCN(C(=O)c2cnn(-c3ccccc3)c2-n2cccc2)CC1`, the survival is reported as inactive: 79%.
`Cc1cccc(-c2nc3nc(C)cc(NCc4ccccc4Cl)n3n2)c1` was tested, and the survival was inactive: 74%.
For `COc1cc(NC(=O)N(Cc2ccco2)C2CCN(C(C)=O)CC2)cc(OC)c1OC`, the survival was inactive: 134%.
With `COc1ccc(-c2cc(C(F)(F)F)nc(-n3nc(C(F)(F)F)cc3C)n2)cc1` the survival was active: 16%.
With `CN1CCN(CCC(=O)Nc2cccc(F)c2)CC1` the survival was inactive: 96%.
With `CCOC(=O)c1cc2c(=O)n3ccccc3nc2n(CCOC)c1=NC(=O)C(C)(C)Oc1ccc(Cl)cc1` the survival was inactive: 78%.
`Cc1ccc(Cn2ccn(CC(=O)Nc3c(C)cc(C)cc3C)c(=O)c2=O)cc1` was tested, and the survival was inactive: 47%.
In the case of `CC(C)c1cnc2c(c1SCc1cccc(F)c1)c(=O)n(C)c(=O)n2C`, the survival is reported as inactive: 80%.
In the case of `Cc1ccc(-c2nc3nc(C)cc(C)n3c2Nc2ccc3c(c2)OCCO3)cc1`, the survival is reported as inactive: 119%.
In the case of `CC(=O)N1CCc2cc(Br)cc(S(=O)(=O)N3CCC(C)CC3)c21`, the survival is reported as inactive: 127%.
In the case of `CCOc1ccc(NC(=O)Cn2c(=O)n(Cc3nc(-c4ccccc4)no3)c(=O)c3cc4c(cc32)OCO4)cc1`, the survival is reported as inactive: 89%.
`CC(=O)c1ccc(NC(=O)c2nc(-c3ccccc3)n(-c3ccc(Cl)cc3)n2)cc1` was tested, and the survival was active: 49%.
`Cc1cn2c(=O)cc(COc3ccccc3NC(=O)c3ccc(C(C)(C)C)cc3)nc2s1` was tested, and the survival was inactive: 82%.
With `Cc1cccc(CNC(=O)c2oc3c(c2C)-c2nn(Cc4cccc(Cl)c4)cc2CC3)c1` the survival was inactive: 97%.
In the case of `CCOc1ccc(CN2C(=O)c3ccccc3Sc3ccc(C(=O)NC)cc32)cc1`, the survival is reported as inactive: 85%.
`COC(=O)c1ccc2c(c1)N(CC(=O)Nc1cccc(Cl)c1C)C(=O)c1ccccc1S2` was tested, and the survival was inactive: 74%.
In the case of `CC(C)NC(=O)Cn1c(=O)nc(-c2ccccc2F)c2cc(Cl)ccc21`, the survival is reported as inactive: 73%.
With `CC(O)/C=C/c1ccncc1` (stereo unspecified) the survival was inactive: 84%.
For `CCCCN(C)CCCNC(=O)Cn1ncc2c3ccccc3n(Cc3ccccc3F)c2c1=O`, the survival was inactive: 114%.
In the case of `Cc1noc(-c2ccc(N3CCC(C)CC3)c([N+](=O)[O-])c2)n1`, the survival is reported as inactive: 60%.
In the case of `COc1ccc(NS(=O)(=O)c2cc3c(cc2C)NC(=O)CO3)c(OC)c1`, the survival is reported as inactive: 86%.
For `COc1cc(NC(=O)C2CCN(S(=O)(=O)c3ccc4c(c3)oc(=O)n4C)CC2)cc(OC)c1`, the survival was inactive: 102%.
In the case of `O=C(CSC1=Nc2ccccc2C2=NC(Cc3ccccc3)C(=O)N12)Nc1ccccc1C(F)(F)F` (stereo unspecified), the survival is reported as inactive: 86%.
For `CCOC(=O)N1CCc2c(sc(NCc3ccc(N(C)C)cc3)c2C(=O)Nc2ccc(OC)cc2)C1`, the survival was inactive: 77%.
With `O=c1[nH]c(O)c(C=NCc2ccc3c(c2)OCO3)c(=O)[nH]1` the survival was inactive: 86%.
For `COc1ccc(NC(=O)CCc2c(C)nc3c(c2C)c(=O)n(C)c(=O)n3C)cc1OC`, the survival was inactive: 100%.
`O=C1N(Cc2cccc(C(F)(F)F)c2)c2ccccc2S(=O)(=O)N1c1cccc(Cl)c1` was tested, and the survival was inactive: 80%.
In the case of `COc1ccc(CNC(=O)c2cc3cc(S(=O)(=O)N4CCCCC4)ccc3n2C)c(OC)c1`, the survival is reported as inactive: 91%.
With `COc1ccc(NC(=O)CSc2nc(-c3cccs3)cc(C(F)(F)F)c2C#N)cc1` the survival was inactive: 88%.
For `Cc1c(Cl)cccc1N1C(N)=C(C#N)C(c2cc(CN3CCOCC3)cs2)C2=C1CCCC2=O` (stereo unspecified), the survival was inactive: 128%.
In the case of `Nc1nc(N)c2nccnc2n1`, the survival is reported as inactive: 115%.
In the case of `COc1ccc(C(c2nnnn2C2CCCC2)N2CCN(C(=O)c3ccco3)CC2)cc1OC` (stereo unspecified), the survival is reported as inactive: 83%.
For `Cc1cccc(N2CC(C)Cn3c2nc2c3c(=O)n(CC(=O)O)c(=O)n2C)c1` (stereo unspecified), the survival was inactive: 133%.
`CCc1cccc(NC(=O)CCc2nc3cccnc3n2-c2ccccc2)c1` was tested, and the survival was inactive: 91%.
In the case of `CSc1ccc(CCNC(=O)c2ccc(CS(=O)(=O)c3ccc(Br)cc3)o2)cc1`, the survival is reported as inactive: 87%.
For `COc1ccc2[nH]c(=O)c(C(c3nnnn3Cc3ccccc3)N3CCc4ccccc43)cc2c1` (stereo unspecified), the survival was inactive: 50%.
For `CCOc1cc(CNC(=O)c2ccc3c(c2)N(C)C(=O)C2CCCCN32)cc(OCC)c1OCC` (stereo unspecified), the survival was inactive: 106%.
With `CCCN(CCC)c1nc(-c2ccccc2F)nc2ccccc12` the survival was active: 4%.
`CCc1ccccc1NC(=O)CSC1=Nc2ccccc2C2=NC(Cc3ccccc3)C(=O)N12` (stereo unspecified) was tested, and the survival was inactive: 78%.
For `O=C(CSc1nc2c([nH]c3ccccc32)c(=O)n1-c1ccc(F)cc1)NC1CCCCC1`, the survival was inactive: 83%.
In the case of `COc1ccc(OCc2ccc(-c3nc(C#N)c(N4CCN(c5cccc(Cl)c5)CC4)o3)o2)cc1`, the survival is reported as inactive: 75%.
With `O=C(COc1ccc([N+](=O)[O-])cc1)Nc1cccc2cccnc12` the survival was inactive: 89%.
In the case of `CCN(CC)C(=O)CSc1nc2cc3c(cc2c(=O)n1CCCCCC(=O)NCCc1ccc(OC)c(OC)c1)OCO3`, the survival is reported as inactive: 115%.
In the case of `COCCNC(=O)CCc1c(C)nc2c(c(C)nn2-c2ccc(C)cc2)c1C`, the survival is reported as inactive: 89%.
`CCOc1ccc(NC(=O)c2c(NCc3sccc3C)sc3c2CCCCC3)cc1` was tested, and the survival was inactive: 73%.
For `COc1ccc(CNC(=O)c2ccc3c(c2)N(Cc2ccccc2F)C(=O)c2ccccc2S3(=O)=O)cc1`, the survival was inactive: 74%.
With `Cc1ccc(C(=O)N2CC3(C)CC2CC(C)(C)C3)cc1` (stereo unspecified) the survival was inactive: 100%.
`N#Cc1c(C(F)(F)F)cc(-c2cccs2)nc1SCC(=O)Nc1ccc(F)cc1` was tested, and the survival was inactive: 72%.
With `Cc1cc(F)ccc1NC(=O)CN(C)S(=O)(=O)c1ccc(C(=O)N2CCOCC2)s1` the survival was inactive: 96%.
In the case of `CC1(C)CCCC2=C1CC1C(=O)N(O)C(=O)C1C2` (stereo unspecified), the survival is reported as inactive: 93%.
`CSc1ncc(Cl)c(C(=O)Nc2ccc(S(=O)(=O)N3CCCC(C)C3)cc2)n1` (stereo unspecified) was tested, and the survival was inactive: 79%.
`CCC(Sc1nc2nccnc2c(=O)n1Cc1ccc(F)cc1)C(=O)NC1CCCCC1` (stereo unspecified) was tested, and the survival was active: 42%.
`CCOc1cccc(C2c3[nH]c4ccccc4c3CCN2C(=O)CCC2CCCC2)c1` (stereo unspecified) was tested, and the survival was inactive: 78%.
In the case of `O=C(CSc1ccccn1)c1ccc(Cl)cc1`, the survival is reported as inactive: 76%.
`CCc1cccc(NC(=O)C2CCC(CNS(=O)(=O)c3csc(C(N)=O)c3)CC2)c1` (stereo unspecified) was tested, and the survival was inactive: 80%.
`COc1cc(NC(=O)C2CCCN(S(=O)(=O)c3ccc4c(c3)CCCC(=O)N4)C2)cc(OC)c1` (stereo unspecified) was tested, and the survival was inactive: 94%.
`COc1cc(Cl)c(C)cc1NC(=O)Cn1ncc2c(=O)oc3ccccc3c21` was tested, and the survival was inactive: 83%.
In the case of `CCC(C(=O)OC)n1cnc2c(cnn2-c2ccc(F)cc2)c1=O` (stereo unspecified), the survival is reported as inactive: 92%.
`COc1ccc(-c2nc(SCC(=O)c3ccc(OC)c(Br)c3)n[nH]2)cc1` was tested, and the survival was inactive: 97%.
In the case of `O=C(NCc1cccnc1)C(=O)NCC(c1cccnc1)N1CCN(c2ccccc2F)CC1` (stereo unspecified), the survival is reported as inactive: 106%.
With `Cc1cc(C)c2c(=O)cc(C(=O)Nc3ccc(S(=O)(=O)N(C)Cc4ccccc4)cc3)oc2c1` the survival was inactive: 61%.
`O=C(C1CCN(S(=O)(=O)c2cccc3nonc23)CC1)N1CCN(c2ccccc2F)CC1` was tested, and the survival was inactive: 89%.
`CCOC(=O)c1sc2ccccc2c1S(=O)(=O)N1CCN(c2cccc(C)c2C)CC1` was tested, and the survival was inactive: 101%.
In the case of `CCOC(=O)c1sc2ccccc2c1S(=O)(=O)N1CCN(c2cccc(OC)c2)CC1`, the survival is reported as inactive: 81%.
For `Cc1nn(-c2ccc(F)cc2)c(-n2cccc2)c1C(=O)NCCCN1CCN(c2cccc(Cl)c2)CC1`, the survival was inactive: 94%.
In the case of `CC(C)(C)OC(=O)N1CCC(c2c(C(=O)NCc3ccco3)cnn2-c2ccccc2)CC1`, the survival is reported as inactive: 88%.
In the case of `CCOc1ccc(S(=O)(=O)c2cn(Cc3ccccc3)c3ccc(OCC)cc3c2=O)cc1`, the survival is reported as inactive: 72%.
With `CCc1ccc(S(=O)(=O)Nc2cccc(-c3ccc(N4CCC(C)CC4)nn3)c2)s1` the survival was inactive: 64%.
`Cc1cc(=O)n2nc(N3CCC(C(=O)NCc4ccccc4)CC3)sc2n1` was tested, and the survival was inactive: 95%.
For `Cc1ccc(NC(=O)Cn2cnc3nc4c(cc3c2=O)CCCC4)cc1Cl`, the survival was inactive: 94%.
`CCc1ccc(CNC(=O)c2cnc3sc(N4CCCCC4)nn3c2=O)cc1` was tested, and the survival was inactive: 99%.
In the case of `CCn1c(=O)cc(SCC(=O)NCc2ccccc2OC)c2ccccc21`, the survival is reported as inactive: 66%.
`COc1ccc2cc(C(=O)NCc3ccc4c(c3)CCN4C(=O)c3ccccc3)[nH]c2c1` was tested, and the survival was active: -1%.
For `O=C(NCCn1cnc2cccnc21)Nc1ccccc1-c1ccccc1`, the survival was inactive: 103%.
In the case of `COc1ccc(C(=O)Nc2ccc(OCc3cc(=O)n4ccsc4n3)cc2)cc1OC`, the survival is reported as inactive: 110%.
`COC(=O)c1cc(S(=O)(=O)NCC2CCN(Cc3ccccc3F)CC2)c[nH]1` was tested, and the survival was inactive: 82%.
In the case of `CN1C(=O)C2(c3ccccc31)N(c1ccc(F)c(Cl)c1)C(=O)CS2(=O)=O` (stereo unspecified), the survival is reported as inactive: 74%.
`Cc1ccc(Cl)cc1NC(=O)CC1SC(N)=NC1=O` (stereo unspecified) was tested, and the survival was inactive: 99%.
In the case of `CCC(=O)N1CCc2cc(S(=O)(=O)CCC(=O)N3CCN(c4ccc(C(C)=O)cc4)CC3)ccc21`, the survival is reported as inactive: 97%.
